# The campaign covered roughly 120,000 compounds. About 5,300 (4.4%) were called active. Inconclusive results, whose numbers are uncertain, are shown with a selection of clear calls. Calls come from the whole dose curve; as a rule, active = well fitted inhibition curve with a large enough effect; inconclusive = small, poorly fitted or top-dose-only effect; inactive = no such curve, though single readings can be large or run the other way. Where the call is inconclusive, the potency comes from a doubtful curve fit.
# Experiment: qHTS Primary assay for Inhibitors of Plasmodium falciparum Dd2 growth in vitro; note: nearly all actives have a fitted effect of over 65% in size
# Settings: P. falciparum Dd2 growth, SYBR Green, 72 h; series mostly up to 28.9 µM
# Summary of the method: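 Infected erythrocytes (Dd2, 0.3% parasitemia, 2.5% hematocrit final) are added to compound in RPMI-1640/Albumax II medium, grown 72 h at 37C in low oxygen, then lysed with saponin/Triton-X containing SYBR Green and read by fluorescence.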
# Potency is the fitted concentration of half-maximal effect; tags give direction and shape of the fitted curve.
row,SMILES,Potency
1,COC[C@@H]1[C@H](NC(=O)c2cc(-c3cccn3C)n[nH]2)[C@@H]2CCO[C@H]12,"inconclusive: 3.98 µM [inhibitor, single point]"
2,CCOc1ccc(OCCOCCn2c(-c3ccc(Cl)cc3)nc3ccccc3c2=O)cc1,"inconclusive: 17.8 µM [inhibitor, single point]"
3,CCc1ccc(-c2nc3c(c(SCc4ccccc4)n2)Cc2c(CO)cnc(C)c2O3)cc1,"inconclusive: 10 µM [inhibitor, partial curve]"
4,O=C1NCC2(CCCN(C(=O)CCc3nc4ccccc4[nH]c3=O)C2)O1 (stereo unspecified),inactive
5,CN(C)c1cccc(-c2cnc(NC(=O)C3(c4ccccc4)CC3)c3c2CCO3)c1,"inconclusive: 14.1 µM [inhibitor, single point]"
6,Cc1ccc(Cn2c(C(=O)Nc3ccc(Cl)cc3)cc3sccc32)cc1,"inconclusive: 17.8 µM [inhibitor, single point]"
7,CCn1cnnc1-c1nn(C)c2c1CN(C(=O)c1cc(F)ccc1F)CC2,inactive
8,O=C1NCCCCCCN(Cc2ccncc2)[C@@H]2CN(Cc3ccccn3)CC[C@H]12,"inconclusive: 7.08 µM [inhibitor, partial curve, poor fit]"
9,CCOc1ccc(-c2cc3c(=O)n(CCNC(=O)C4(c5ccccc5)CC4)ccn3n2)cc1,"inconclusive: 3.55 µM [inhibitor, full curve, poor fit]"
10,COC(=O)c1ccc2c(c1)nc1n2[C@@H](CNS(=O)(=O)c2ccccc2)COC1,inactive
11,Fc1ccc(-c2nnc3ccc(NCCc4ccccn4)nn23)nc1,inactive
12,CCOc1ccc(Nc2sc(C(=O)c3ccc(F)cc3)c(N)c2S(=O)(=O)c2ccc(C)cc2)cc1,"inconclusive: 3.98 µM [inhibitor, single point]"
13,Cc1oc2ncn(CC(C)C)c(=O)c2c1C(=O)NCc1cccc(Cl)c1,"inconclusive: 17.8 µM [inhibitor, single point]"
14,CCC(=O)N1CCC(Cc2noc(-c3ccccc3)n2)C1 (stereo unspecified),"inconclusive: 15.8 µM [inhibitor, partial curve, poor fit]"
15,COc1ccc(NC2CN(C(=O)OC(C)(C)C)C2)cc1,inactive
16,COc1cc(OC)cc(C(=O)NC2CCN(c3cc(C(F)(F)F)nc(C)n3)CC2)c1,"inconclusive: 20 µM [inhibitor, single point]"
17,CCc1ccc(CN(Cc2ccco2)C(=O)COc2ccccc2Cl)cc1,"inconclusive: 11.2 µM [inhibitor, single point]"
18,NCCCC(=O)N1CCCC2(Cc3ccccc3CN2C(=O)Cc2cccc(Cl)c2)C1 (stereo unspecified),inactive
19,O=C(NCc1ccccc1)C1COC2(CCN(C(=O)c3ccco3)CC2)N1C(=O)c1ccco1 (stereo unspecified),inactive
20,CN(c1ncnc2c1c(-c1ccccc1)cn2-c1cccc(Cl)c1)C1CCCCC1,"inconclusive: 10 µM [inhibitor, single point]"
21,COc1cccc(NC(=O)CCc2nc(-c3ccc(C(C)(C)C)cc3)no2)c1,"inconclusive: 10 µM [inhibitor, single point]"
22,CCc1nc(-c2c3n(c(=O)n(Cc4cccc(Br)c4)c2=O)CCCC3)no1,"inconclusive: 17.8 µM [inhibitor, single point]"

row,SMILES,Potency
1,C[S+](=O)([O-])N1CC2(CCN(Cc3ccccn3)CC2)Cc2ccccc21,"inconclusive: 6.31 µM [inhibitor, partial curve]"
2,CCOc1ccccc1CNC(=O)[C@H]1CCC[C@H]1NC(=O)c1ccc(OC)cc1,active: 11.2 µM
3,Cc1nc(-c2cccnc2)ncc1C(=O)N1CC[C@](C)(O)C(C)(C)C1,inactive
4,CCOc1ccccc1-c1noc(-c2nc(C)no2)n1,inactive
5,O=C1CC(c2ccccc2)N(C(=O)CNS(=O)(=O)c2cccnc2)CCCCCN1 (stereo unspecified),inactive
6,CCOc1ccccc1CNC(=O)c1ccc2c(c1)CC(=O)N2C,"inconclusive: 1.58 µM [inhibitor, partial curve, poor fit]"
7,COc1ccc(CN2CCn3c(nnc3-c3ccc(Cl)cc3)C2)cc1,inactive
8,CCn1nccc1C(=O)N1CCCC1c1nc(CCOc2cccc(C)c2)no1 (stereo unspecified),"inconclusive: 17.8 µM [inhibitor, single point]"
9,Cc1nn2c(c1-c1cccc3cn[nH]c13)N(C(=O)COc1ccccc1C(N)=O)CCC2,"inconclusive: 31.6 µM [inhibitor, single point]"
10,CC(C)NC(=O)NC[C@H]1O[C@H](Cc2cc(-c3ccc(F)cc3)on2)CC[C@@H]1O,inactive
11,O=[S+]1([O-])NCC2(CCCN(Cc3ccccc3)C2)Nc2ccccc21 (stereo unspecified),"inconclusive: 5.62 µM [inhibitor, partial curve]"
12,CCOc1ccccc1NC(=O)C1CCCN(c2ncnc3onc(-c4ccc(F)cc4)c23)C1 (stereo unspecified),"inconclusive: 10 µM [inhibitor, partial curve]"
13,O=C(O)CCC(=O)N1CCCC2(Cc3ccccc3N(C(=O)c3ccc(Cl)cc3)C2)C1 (stereo unspecified),inactive
14,COc1ccc(-c2cc3c(cn2)CN(CCc2ccccc2)CCN3)cc1OC,"inconclusive: 10 µM [inhibitor, partial curve, poor fit]"
15,CC(=O)N1CCC2(C1)C(=NC1CCCC1)NC(=O)N2c1cccnc1 (stereo unspecified),inactive
16,COc1cccc(CN2CCCC3(Cc4ccccc4CNC3=O)C2)c1 (stereo unspecified),"inconclusive: 5.01 µM [inhibitor, partial curve, poor fit]"
17,Cc1oc2ncn(CC(C)C)c(=O)c2c1C(=O)NCCc1ccc(Cl)cc1,"inconclusive: 17.8 µM [inhibitor, single point]"
18,Cc1nc([C@@H]2CN(Cc3ccc(C(F)(F)F)cc3)C[C@H]2C(N)=O)n[nH]1,"inconclusive: 2.82 µM [inhibitor, single point]"
19,COC1C(=O)N(C2CCN(S(=O)(=O)c3cccnc3)CC2)C12CCOCC2 (stereo unspecified),inactive
20,Cc1cccc(NC(=O)CSc2nc(-c3cccc(C)c3)nc3c2Cc2c(CO)cnc(C)c2O3)c1,active: 8.91 µM
21,CC1(C)Cc2c(c(N3CCOCC3)nc3sc(C(=O)Nc4ccc(Cl)cc4)c(N)c23)CO1,"inconclusive: 10 µM [inhibitor, partial curve]"
22,Cc1cccc(CC(=O)N2CCC(n3cc(-c4nc(-c5ccccc5)no4)nn3)CC2)c1,"inconclusive: 2 µM [inhibitor, partial curve, poor fit]"

row,SMILES,Potency
1,CCc1cccc(NC(=O)Nc2cccc(-c3ccc(N4CCOCC4)nn3)c2)c1,"inconclusive: 17.8 µM [inhibitor, single point]"
2,O=C(CCn1cnnn1)N1CC(c2noc(C3CCCN3CC3CC3)n2)C1 (stereo unspecified),"inconclusive: 14.1 µM [inhibitor, single point]"
3,COc1ccc(C(=O)N2[C@H]3CC[C@@H]2c2cnc(-c4ccc(F)cc4)nc2C3)c(OC)c1,"inconclusive: 17.8 µM [inhibitor, single point]"
4,COc1ccc(-c2ccc(-c3nc(CC(C)C)no3)cn2)c2cccnc12,"inconclusive: 17.8 µM [inhibitor, single point]"
5,O=C1CN(C(=O)CCC[C@@H]2[C@H]3CCCN4CCC[C@@H](CN2Cc2ccccc2)[C@@H]34)CCN1,"inconclusive: 8.91 µM [inhibitor, partial curve, poor fit]"
6,COc1ccc(CN2CC(Oc3ccccc3C(=O)NC3CC3)C2)cc1OC,inactive
7,COC(=O)[C@H]1CN(C(=O)c2cccnc2)CCN1C(=O)CSC,inactive
8,O=C(CC1CCCC1)NCCC1CCN(C(=O)Nc2ccc(F)cc2)CC1,inactive
9,Cc1cccc(NC(=O)CC2Nc3cccc4cccc(c34)NC2=O)c1 (stereo unspecified),inactive
10,Cc1ccc(F)cc1CC(=O)N1C[C@@H](CN2CCOCC2)[C@@H](CO)C1,inactive
11,O=C(CCC1CCCCC1)N1CC2CC(C1)[C@H]1CCCC(=O)N1C2 (stereo partly specified),inactive
12,CCC1Oc2ccc(NC(=O)Cc3cccs3)cc2CN(C2CCCc3ccccc32)C1=O (stereo unspecified),"inconclusive: 1.41 µM [inhibitor, full curve, poor fit]"
13,CC1CCC(NC(=O)c2nnn3c2COC(c2ccc(F)cc2)C3)CC1 (stereo unspecified),"inconclusive: 17.8 µM [inhibitor, single point]"
14,O=C(NCC(c1cccnc1)N1CCc2ccccc21)c1cccc(Br)c1 (stereo unspecified),"inconclusive: 15.8 µM [inhibitor, single point]"
15,CC(C)(C)c1cnc([C@@H]2COCCN2Cc2ccc(C(=O)O)cc2)[nH]1,inactive
16,CCN1c2cc(C(=O)N3CCN(C4CCCCC4)CC3)ccc2C(=O)N2CCCCCC21 (stereo unspecified),"inconclusive: 7.94 µM [inhibitor, partial curve, poor fit]"
17,COc1ccc(-n2ncc(C(=O)NCc3ccco3)c2C2CCN(C(=O)OC(C)(C)C)CC2)cc1,"inconclusive: 11.2 µM [inhibitor, single point]"
18,COc1ccc2ccccc2c1CCNC(=O)CC1C(=O)NCCN1C(C)C (stereo unspecified),"inconclusive: 15.8 µM [inhibitor, single point]"
19,Cc1cn2nc(C(=O)N3CCC(NC(=O)C4(c5ccccc5)CC4)CC3)cc2c(=O)[nH]1,"inconclusive: 1.41 µM [inhibitor, partial curve, poor fit]"
20,O[C@@H]1CCN(Cc2nc(C3(O)CCN(C4COC4)CC3)cs2)C1,inactive
21,Brc1cccc(-c2nnn3c2nc(NCc2ccc4c(c2)OCO4)c2ccccc23)c1,"inconclusive: 11.2 µM [inhibitor, single point]"
22,Cc1cc(N2CCC(NCc3noc(C)n3)CC2)nc(-c2ccccc2O)n1,"inconclusive: 2.24 µM [inhibitor, full curve]"

# From PubChem BioAssay AID1347417 (National Center for Advancing Translational Sciences (NCATS), 2020)
